# Measurements taken from the supplement of paper PMC7826260.
# Some of the results follow. The data describe in vitro nicking of single-stranded DNA by Rep domains (3 µM enzyme, 1 h, 37 °C); shown is the middle of each 90-letter strand. A value is the log2 ratio of uncut reads to the pool without enzyme; strong cutting gives strongly negative numbers. There is no active / inactive call. The scaling is to total reads; uncut strands gain when others are lost, and binding without cutting may add a little.
# Test system: T1, Rep nickase domain of Muscovy duck circovirus
# T1 sequence (Rep 1-111, printed without the tag): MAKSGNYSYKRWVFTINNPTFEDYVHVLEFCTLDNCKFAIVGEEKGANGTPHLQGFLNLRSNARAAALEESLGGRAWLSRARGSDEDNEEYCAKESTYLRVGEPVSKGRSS
# Test: uncleaved DNA left, log2 of reads against the no-enzyme library (log2 ratio); higher = less cleavage (more negative = more Rep cleavage of the k-mer); sequences stand for … in CTCGTCCG…ACCGGAGA
# Experimental: (§1)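 A pool of 90-nt single-stranded DNAs with seven random bases just before the constant AC of the nick site (name = the seven bases) was cut by 3 µM recombinant His6-SUMO-tagged Rep nickase domain (300 nM DNA, 50 mM HEPES pH 8.0, 50 mM NaCl, 1 mM MnCl2, 1 h, 37 °C, three replicates). Uncut DNA was amplified and sequenced.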
row,Sequence,uncleaved DNA left (log2)
1,TCGAAAC,0.022
2,TGGAGCC,-0.0722
3,AGTGAAG,0.125
4,TGTGGCA,0.154
5,TACTTGA,-0.059
6,TCTTGTG,0.0216
7,ACGCAGT,-0.00761
8,GCGCCCG,-0.082
9,GCCTACG,0.0138
10,ACTCCGG,0.000128
11,TACAGGT,0.0127
12,GGTGCTA,0.0239
13,TACTTAG,0.0748
14,GACGCGC,-0.167
15,CACTGAG,0.153
16,TTATCAA,0.115
17,AGGCGCG,0.0636
18,CCCAAAT,-0.0558
19,CCACTTA,0.0443
20,AACAGCA,-0.0655

row,Sequence,uncleaved DNA left (log2)
1,TGGTCAT,-0.0103
2,TGTACCC,-0.0462
3,AATCGGC,0.0898
4,GCATGTT,-2.87
5,TGCGTAC,0.0173
6,TCATTCC,0.039
7,TTAGGTG,0.00133
8,CCTACTG,-0.177
9,TTATTTT,-3.26
10,CTAACGG,0.0392
11,TGGTTAA,-0.0578
12,TGTACAC,-0.00427
13,CGAGACT,0.0662
14,CCTCTGA,0.0602
15,GTAAGGT,0.0375
16,AAAAACC,-0.0362
17,CGTCAAG,0.00434
18,GGGGTGG,0.0739
19,TGCGACC,-0.00589
20,CCCTTCA,-0.0832

# Test system: T2, Rep nickase domain of banana bunchy top virus
# T2 sequence (Rep 1-94, printed without the tag): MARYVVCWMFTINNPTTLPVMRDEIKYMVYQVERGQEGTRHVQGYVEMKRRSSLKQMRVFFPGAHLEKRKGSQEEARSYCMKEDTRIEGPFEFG
# Test: as above
# Experimental: as §1
row,Sequence,uncleaved DNA left (log2)
1,TCGAAAC,-0.0792
2,TGGAGCC,-0.0393
3,AGTGAAG,0.21
4,TGTGGCA,0.0665
5,TACTTGA,-0.0364
6,TCTTGTG,0.0779
7,ACGCAGT,0.118
8,GCGCCCG,-0.0681
9,GCCTACG,-0.00817
10,ACTCCGG,0.0188
11,TACAGGT,-0.0223
12,GGTGCTA,0.0918
13,TACTTAG,-0.0194
14,GACGCGC,-0.168
15,CACTGAG,0.046
16,TTATCAA,0.215
17,AGGCGCG,0.0592
18,CCCAAAT,0.018
19,CCACTTA,-0.00318
20,AACAGCA,-0.0195

row,Sequence,uncleaved DNA left (log2)
1,TGGTCAT,0.0141
2,TGTACCC,0.032
3,AATCGGC,0.125
4,GCATGTT,-0.166
5,TGCGTAC,-0.0784
6,TCATTCC,-0.0255
7,TTAGGTG,-0.044
8,CCTACTG,-0.156
9,TTATTTT,-0.259
10,CTAACGG,0.036
11,TGGTTAA,-0.0662
12,TGTACAC,0.0628
13,CGAGACT,-0.012
14,CCTCTGA,-0.0948
15,GTAAGGT,0.067
16,AAAAACC,-0.0381
17,CGTCAAG,-0.00214
18,GGGGTGG,0.0322
19,TGCGACC,0.037
20,CCCTTCA,0.0204

# Test system: T3, Rep nickase domain of cabbage leaf curl virus
# T3 sequence (Rep 1-116, printed without the tag): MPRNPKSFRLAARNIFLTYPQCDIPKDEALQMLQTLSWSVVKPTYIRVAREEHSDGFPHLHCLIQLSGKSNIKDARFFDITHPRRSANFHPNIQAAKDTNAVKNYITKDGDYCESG
# Test: as above
# Experimental: as §1
row,Sequence,uncleaved DNA left (log2)
1,TCGAAAC,0.0977
2,TGGAGCC,0.122
3,AGTGAAG,-0.254
4,TGTGGCA,0.368
5,TACTTGA,-0.0705
6,TCTTGTG,-0.671
7,ACGCAGT,-0.408
8,GCGCCCG,-0.592
9,GCCTACG,-0.732
10,ACTCCGG,-0.061
11,TACAGGT,0.193
12,GGTGCTA,0.622
13,TACTTAG,-0.777
14,GACGCGC,-0.682
15,CACTGAG,-0.577
16,TTATCAA,0.825
17,AGGCGCG,-0.711
18,CCCAAAT,-0.0649
19,CCACTTA,0.0282
20,AACAGCA,-0.56

row,Sequence,uncleaved DNA left (log2)
1,TGGTCAT,0.819
2,TGTACCC,0.289
3,AATCGGC,-0.0869
4,GCATGTT,-1.05
5,TGCGTAC,-0.388
6,TCATTCC,0.223
7,TTAGGTG,-0.283
8,CCTACTG,-0.172
9,TTATTTT,-3.45
10,CTAACGG,0.455
11,TGGTTAA,0.119
12,TGTACAC,0.315
13,CGAGACT,0.316
14,CCTCTGA,-0.0867
15,GTAAGGT,-0.193
16,AAAAACC,-0.123
17,CGTCAAG,-0.602
18,GGGGTGG,0.713
19,TGCGACC,-0.177
20,CCCTTCA,0.216

# Test system: T4, Rep nickase domain of chickpea chlorotic dwarf virus
# T4 sequence (Rep 1-124, printed without the tag): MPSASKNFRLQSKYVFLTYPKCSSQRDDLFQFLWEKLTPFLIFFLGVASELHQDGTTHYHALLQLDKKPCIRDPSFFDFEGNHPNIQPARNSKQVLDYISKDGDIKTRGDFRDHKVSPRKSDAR
# Test: as above
# Experimental: as §1
row,Sequence,uncleaved DNA left (log2)
1,TCGAAAC,-0.482
2,TGGAGCC,0.395
3,AGTGAAG,-0.193
4,TGTGGCA,0.682
5,TACTTGA,-0.816
6,TCTTGTG,0.0536
7,ACGCAGT,-0.507
8,GCGCCCG,-0.464
9,GCCTACG,-0.488
10,ACTCCGG,-0.025
11,TACAGGT,0.879
12,GGTGCTA,1.33
13,TACTTAG,-0.93
14,GACGCGC,-0.236
15,CACTGAG,-0.132
16,TTATCAA,1.65
17,AGGCGCG,0.0357
18,CCCAAAT,-0.672
19,CCACTTA,-1.47
20,AACAGCA,-1.89

row,Sequence,uncleaved DNA left (log2)
1,TGGTCAT,1.94
2,TGTACCC,0.238
3,AATCGGC,-0.221
4,GCATGTT,-1.99
5,TGCGTAC,-0.342
6,TCATTCC,0.212
7,TTAGGTG,-0.404
8,CCTACTG,-0.172
9,TTATTTT,-3.1
10,CTAACGG,1.45
11,TGGTTAA,0.148
12,TGTACAC,0.751
13,CGAGACT,0.329
14,CCTCTGA,-0.259
15,GTAAGGT,-0.852
16,AAAAACC,-1.1
17,CGTCAAG,-0.412
18,GGGGTGG,1.54
19,TGCGACC,0.315
20,CCCTTCA,-0.609

# Test system: T5, Rep nickase domain of faba bean necrotic yellows virus
# T5 sequence (Rep 1-98, printed without the tag): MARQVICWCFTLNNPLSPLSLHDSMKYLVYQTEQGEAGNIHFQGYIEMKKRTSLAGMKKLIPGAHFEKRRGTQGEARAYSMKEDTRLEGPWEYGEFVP
# Test: as above
# Experimental: as §1
row,Sequence,uncleaved DNA left (log2)
1,TCGAAAC,0.0892
2,TGGAGCC,-0.123
3,AGTGAAG,0.142
4,TGTGGCA,0.176
5,TACTTGA,0.0566
6,TCTTGTG,0.131
7,ACGCAGT,-0.0613
8,GCGCCCG,-0.0497
9,GCCTACG,-0.127
10,ACTCCGG,-0.0345
11,TACAGGT,-0.000103
12,GGTGCTA,0.0206
13,TACTTAG,-0.0874
14,GACGCGC,-0.0571
15,CACTGAG,0.0932
16,TTATCAA,0.104
17,AGGCGCG,0.08
18,CCCAAAT,0.0689
19,CCACTTA,0.162
20,AACAGCA,-0.0268

row,Sequence,uncleaved DNA left (log2)
1,TGGTCAT,-0.0719
2,TGTACCC,0.0521
3,AATCGGC,0.0341
4,GCATGTT,0.00177
5,TGCGTAC,0.0502
6,TCATTCC,-0.0212
7,TTAGGTG,0.0494
8,CCTACTG,-0.0736
9,TTATTTT,0.0793
10,CTAACGG,0.0237
11,TGGTTAA,-0.126
12,TGTACAC,-0.0724
13,CGAGACT,0.0571
14,CCTCTGA,-0.00842
15,GTAAGGT,-0.0051
16,AAAAACC,-0.0187
17,CGTCAAG,0.0493
18,GGGGTGG,0.00433
19,TGCGACC,0.0207
20,CCCTTCA,-0.0879
